# Test results published in PubChem BioAssay (Tox21).
# “And” between values parts separate entries of the source, which are not always exact repeats. Identical values can stand only once. The inconclusive results got no clear call from the source; some entries with a clear call stand among them for comparison. Where the call is inconclusive, the potency comes from a doubtful curve fit. The source made the active and inactive calls. Unless noted, the call rests on the fitted dose curve; in most records, active means well fitted curve in the direction sought with a large enough effect in the repeat runs; inconclusive means weak or mixed curves; inactive means no such curve, though single readings can be large; an effect the other way counts as inactive or inconclusive.
# How the values were obtained:
# [1] = qHTS assay to identify small molecule agonists of H2AX (AID 1224845; active means well fitted activation curve with a large enough effect in the signal ratio in the repeat runs, not every such curve was filed as active; inconclusive means weak or mixed curves; the % refers to the signal ratio; on activation (H2AX phosphorylation): on the % scale 0 is the no-effect control and ±100 the full control effect); conditions: CHO-K1 phospho-H2AX Ser139 HTRF, 3 h; activation (H2AX phosphorylation): at 154 µM (top of the series) unless noted
# Summary of the method: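 Phospho-H2AX Ser139 measured by HTRF (ex 320 nm; em 665 and 620 nm) after 24 hr antibody incubation. Compounds, 15 concentrations, 0.76% DMSO, were applied to CHO-K1 cells for 3hr at 37C before lysis.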
# [2] = qHTS assay to identify small molecule agonists of the hypoxia (HIF-1) signaling pathway (AID 1224846; active means well fitted activation curve with a large enough effect in the signal ratio in the repeat runs, not every such curve was filed as active; inconclusive means weak or mixed curves; the % refers to the signal ratio); conditions: HRE-bla ME-180 cells, beta-lactamase ratio, 17 h; activation: at 76.8 µM (top of the series) unless noted
# Summary of the method: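 Beta-lactamase FRET read-out (CCF4-AM substrate) from ME-180 cells carrying an HRE-driven bla reporter, after 17 hrs compound exposure at 37C/5% CO2. Cells were seeded at 2,000 per well in 0.5% dialyzed FBS medium and preincubated 5 hrs.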
# [3] = qHTS assay to identify small molecule agonists of H2AX - cell viability counter screen (AID 1224847; calls by dose curve; further: nearly all actives have a fitted effect of over 30% in size)
# Summary of the method: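 Cells plated first: CHO-K1, 1000 per well in 10% FBS medium, incubated overnight at 37C. Then 15-point compound titration added (final DMSO 0.76%) for 3 hr. Finally CellTiter-Glo added and luminescence read.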
# [4] = qHTS RealTime-Glo MT Cell Viability Assay in HepG2 cells - 24 hour (AID 1224867); further: nearly all actives have a fitted effect of over 50% in size
# Summary of the method: (§1)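 Viability was tracked continuously by NanoLuc luminescence from prosubstrate reduced by living HepG2 cells, at successive time points over 40 h of compound exposure. Cells with reagent were preincubated 5 h at 37 °C before compound addition.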
# [5] = qHTS RealTime-Glo MT Cell Viability Assay in HepG2 cells - 40 hour (AID 1224870); further: nearly all actives have a fitted effect of over 50% in size
# Summary of the method: (§2)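 Real-time viability: cells seeded at 600 per well together with NanoLuc and cell-permeant prosubstrate, compounds added after 5 h incubation. Luminescence tracked at 0, 8, 16, 24, 32 and 40 h of exposure.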
# [6] = qHTS RealTime-Glo MT Cell Viability Assay in HepG2 cells - 32 hour (AID 1224877); further: nearly all actives have a fitted effect of over 55% in size
# Summary of the method: as §1
# [7] = A CellTox Green Cytotoxicity Assay to monitor cytotoxicity in HepG2 cells - 24 hour (AID 1224878); further: nearly all actives have a fitted effect of over 45% in size
# Summary of the method: (§3)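 HepG2, 600 cells/well premixed w/ CellTox Green; 5 h settle, 37 C/5% CO2; pintool cpd add (DMSO); 37 C, 40 h; fluorescence read at 0, 8, 16, 24, 32, 40 h.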
# [8] = qHTS RealTime-Glo MT Cell Viability Assay in HEK293 cells - 32 hour (AID 1224868); further: nearly all actives have a fitted effect of over 50% in size
# Summary of the method: (§4)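 Viability tracked continuously by luminescence as live cells reduce a prosubstrate for NanoLuc; HEK293 cells preincubated 5 h, compound-treated at 37 C, and read at 0, 8, 16, 24, 32 and 40 h.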
# [9] = A CellTox Green Cytotoxicity Assay to monitor cytotoxicity in HEK293 cells - 0 hour (AID 1224869); further: nearly all actives have a fitted effect of over 50% in size
# Summary of the method: (§5)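 Read-out: fluorescence of a cell-impermeant cyanine dye staining DNA of dead cells, proportional to cytotoxicity. HEK293, 600 cells/well with reagent, compound (23 nL DMSO) added after 5 h; reads at 0, 8, 16, 24, 32, 40 h.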
# [10] = A CellTox Green Cytotoxicity Assay to monitor cytotoxicity in HEK293 cells - 40 hour (AID 1224871); further: nearly all actives have a fitted effect of over 45% in size
# Summary of the method: as §5
# [11] = qHTS RealTime-Glo MT Cell Viability Assay in HEK293 cells - 16 hour (AID 1224872); further: nearly all actives have a fitted effect of over 50% in size
# Summary of the method: as §4
# [12] = qHTS RealTime-Glo MT Cell Viability Assay in HEK293 cells - 40 hour (AID 1224874); conditions: RealTime-Glo luminescence; max response: stronger effect = lower value; further: nearly all actives have a fitted effect of over 50% in size; on max response: on the % scale 0 is the no-effect control and ±100 the full control effect
# Summary of the method: (§6)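 Luminescence readout at each listed time point; HEK293, 600 cells/well, RealTime-Glo MT reagent added with cells; compounds pinned (23 nL in DMSO) after 5 h at 37 C; continuous culture at 37 C.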
# [13] = A CellTox Green Cytotoxicity Assay to monitor cytotoxicity in HEK293 cells - 24 hour (AID 1224875); further: nearly all actives have a fitted effect of over 45% in size
# Summary of the method: as §5
# [14] = A CellTox Green Cytotoxicity Assay to monitor cytotoxicity in HepG2 cells - 40 hour (AID 1224879); further: nearly all actives have a fitted effect of over 40% in size
# Summary of the method: as §3
# [15] = A CellTox Green Cytotoxicity Assay to monitor cytotoxicity in HEK293 cells - 32 hour (AID 1224881); further: nearly all actives have a fitted effect of over 40% in size
# Summary of the method: as §5
# [16] = qHTS assay to identify small molecule antagonists of the estrogen related receptor (ERR) signaling pathway from Tox21 library (AID 1224848); further: nearly all actives have a fitted effect of over 50% in size; on activity, negative = inhibition: on the % scale 0 is the no-effect control and ±100 the full control effect
# Summary of the method: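 Luciferase luminescence (ONE-Glo, 30 min room temperature) was the read-out. Cells of the NTP-supplied ERR line, 2,000 per well, were given 6 h at 37 C before compound addition in DMSO and 18 h exposure at 37 C.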
# [17] = qHTS RealTime-Glo MT Cell Viability Assay in HepG2 cells - 8 hour (AID 1224873); further: nearly all actives have a fitted effect of over 55% in size
# Summary of the method: as §2
# [18] = A CellTox Green Cytotoxicity Assay to monitor cytotoxicity in HepG2 cells - 16 hour (AID 1224876); further: nearly all actives have a fitted effect of over 45% in size
# Summary of the method: as §3
# [19] = qHTS RealTime-Glo MT Cell Viability Assay in HEK293 cells - 0 hour (AID 1224880); further: nearly all actives have a fitted effect of over 45% in size
# Summary of the method: as §6
# Potency means the concentration at half of the fitted maximal effect; tags describe the fitted curve by direction and shape or compound fluorescence and quenching.
smiles,measurement,setting,value
C[n+]1c2cc(N)ccc2cc2ccc(N)cc21 (tested in a mixture with another compound),Potency,[1],"inconclusive: 43.8 µM [falling, partial curve]"
same,Potency,[2],inconclusive: 19 µM
same,Potency,[3],"inconclusive: 24.7 µM [rising, partial curve]"
same,Potency,[4],"inconclusive: 5.35 µM [falling, full curve]"
same,Potency,[5],"inconclusive: 4.77 µM [falling, full curve]"
same,Potency,[6],"inconclusive: 5.35 µM [cytotoxic, full curve]"
same,Potency,[7],active: 21.3 µM
CCCCC/C=C/C=C/C=O,Potency,[1],"inconclusive: 127 µM [activator, single point]"
same,Potency,[2],inconclusive: 61.7 µM [single point]
same,Potency,[4],"inconclusive: 54.9 µM [falling, partial curve, poor fit]"
same,Potency,[8],"inconclusive: 54.5 µM [cytotoxic, single point]"
same,Potency,[9],"inconclusive: 61.2 µM [activator, single point]"
same,Potency,[10],"inconclusive: 49 µM [activator, single point]"
same,Potency,[11],"inconclusive: 54.5 µM [cytotoxic, single point]"
same,Potency,[12],"inconclusive: 54.5 µM [cytotoxic, single point]"
same,Potency,[13],"inconclusive: 54.5 µM [activator, single point]"
same,Potency,[7],"inconclusive: 48.6 µM [activator, single point]"
same,Potency,[14],"inconclusive: 54.5 µM [activator, single point] and active: 54.9 µM"
same,Potency,[15],"inconclusive: 54.9 µM [activator, partial curve, poor fit]"
O=C(O)O,Potency,[1],active: 4.88 µM
same,Potency,[2],inconclusive: 3.35 µM [single point]
same,"activity, negative = inhibition",[16],inactive: 10.7% [at 8.39 µM]
same,max response,[12],inactive: -2.54%
Brc1cc2ccccc2c2ccccc12,Potency,[1],"inconclusive: 50.9 µM [fluorescent, partial curve]"
same,Potency,[2],inconclusive: 55.4 µM
same,Potency,[16],"inconclusive: 34.6 µM [inhibitor, partial curve]"
same,Potency,[8],"inconclusive: 44 µM [cytotoxic, partial curve, poor fit]"
same,Potency,[10],"inconclusive: 39.2 µM [activator, partial curve, poor fit]"
same,Potency,[11],"inconclusive: 62.1 µM [cytotoxic, single point]"
same,Potency,[12],"inconclusive: 44 µM [cytotoxic, partial curve]"
same,Potency,[14],active: 39.2 µM
same,Potency,[15],"inconclusive: 34.9 µM [activator, partial curve, poor fit]"
CN[C@H]1CC[C@@H](c2ccc(Cl)c(Cl)c2)c2ccccc21,Potency,[1],"inconclusive: 55.2 µM [falling, partial curve, poor fit]"
same,Potency,[2],"inconclusive: 7.56 µM [falling, partial curve, poor fit]"
same,Potency,[3],active: 49.2 µM
same,Potency,[10],"inconclusive: 26.8 µM [activator, single point]"
same,Potency,[11],"inconclusive: 21.3 µM [cytotoxic, partial curve]"
same,Potency,[17],"inconclusive: 26.8 µM [falling, partial curve]"
same,Potency,[13],"inconclusive: 26.8 µM [activator, single point]"
same,Potency,[18],active: 19 µM
same,Potency,[19],"inconclusive: 19 µM [rising, partial curve]"
same,Potency,[15],"inconclusive: 26.8 µM [activator, single point]"
CCc1ccc(C(c2ccc(CC)cc2)C(Cl)Cl)cc1,Potency,[1],inactive
same,Potency,[2],"inconclusive: 25 µM [falling, partial curve]"
same,Potency,[3],"inconclusive: 127 µM [cytotoxic, single point]"
same,Potency,[4],inactive
same,Potency,[8],"inconclusive: 49.8 µM [cytotoxic, single point] and inconclusive: 38.9 µM [cytotoxic, partial curve]"
same,Potency,[10],"inconclusive: 55.9 µM [activator, single point] and inconclusive: 27.5 µM [activator, partial curve, poor fit]"
same,Potency,[11],"inconclusive: 49.8 µM [cytotoxic, partial curve] and inconclusive: 38.9 µM [cytotoxic, partial curve]"
same,Potency,[12],"inconclusive: 55.9 µM [cytotoxic, single point] and inconclusive: 43.6 µM [cytotoxic, partial curve]"
same,Potency,[13],"inconclusive: 55.9 µM [activator, single point] and inconclusive: 34.7 µM [activator, partial curve, poor fit]"
same,Potency,[18],"inconclusive: 38.9 µM [activator, partial curve, poor fit]"
same,Potency,[15],"inconclusive: 55.9 µM [activator, single point] and inconclusive: 30.9 µM [activator, partial curve]"
